The source of these data is a collection of fitness landscapes (doi:10.1126/science.1257360).

To fix the notation:
B1: PhoQ; a variant is named by its letters at X, in order, P23837 (parent)
chain: MKKLLRLFFPLSLRVRFLLATAAVVLVLSLAYGMVALIGYSVSFDKTTFRLLRGESNLFYTLAKWENNKLHVELPENIDKQSPTMTLIYDENGQLLWAQRDVPWLMKMIQPDWLKSNGFHEIEADVNDTSLLLSGDHSIQQQLQEVREDDDDAEMTHSVAVNVYPATSRMPKLTIVVVDTIPVELKSSYMVWSWFIYVLSANLLLVIPLLWVAAWWSLRPIEALAKEVRELEEHNRELLNPATTRELTSLVRNLNRLLKSERERYDKYRTTLTDLTHSLKTPLXXLQXXLRSLRSEKMSVSDAEPVMLEQISRISQQIGYYLHRASMRGGTLLSRELHPVAPLLDNLTSALNKVYQRKGVNISLDISPEISFVGEQNDFVEVMGNVLDNACKYCLEFVEISARQTDEHLYIVVEDDGPGIPLSKREVIFDRGQRVDTLRPGQGVGLAVAREITEQYEGKIVAGESMLGGARMEVIFGRQHSAPKDE

Some of the results follow. Some results are limits rather than exact numbers.

Variants of B1 are the subject of the assay. Briefly: enrichment ratio after two sorts for PhoP signalling (ratio (wild type AVST 3.29)); higher = more functional. The conditions noted are these: with PhoP (E. coli).
With FYHA, the enrichment ratio was no more than 0.25. In the case of IVAF it was no more than 0.25; in that of TPGH, no more than 0.25; in that of SPCM, no more than 0.25.

Take IPCK: the enrichment ratio was no more than 0.25. In the case of GHVN it was no more than 0.25; in that of TQLN, 13.2. Under HHVG stands no more than 0.25; under SCVS, 3.13. In the case of LQTN it was no more than 0.25; in that of VDDM, no more than 0.25; in that of LNPV, no more than 0.25.

As for FAQP, the enrichment ratio is no more than 0.25.

Regarding YHKR, the enrichment ratio is no more than 0.25. Under KICH stands no more than 0.25; under FHDY, no more than 0.25. In the case of QMVA it was no more than 0.25.

For the variant WENR, the enrichment ratio is no more than 0.25.

As for LYKI, the enrichment ratio is no more than 0.25. In the case of RWKV it was no more than 0.25. In the case of SYQE it was no more than 0.25; in that of ATQM, 0.38. In the case of LWCT, the enrichment ratio was no more than 0.25. As to VLSV, the enrichment ratio is no more than 0.25.

With DPGN, the enrichment ratio was no more than 0.25.

Take AIIT: the enrichment ratio came to 9.24.

With AEPY, the enrichment ratio is no more than 0.25.

In the case of RMCD, the enrichment ratio was no more than 0.25. Under ESEA stands no more than 0.25; under CCFG, no more than 0.25. NTGS: the enrichment ratio is no more than 0.25. In the case of VHIC it was no more than 0.25. With VCSW, the enrichment ratio is no more than 0.25. For the variant LPYI, the enrichment ratio is no more than 0.25. Under WARI stands no more than 0.25. In the case of ISEK it was no more than 0.25; in that of MTFA, no more than 0.25.

On to QTGF, for which the enrichment ratio came to 10.1. In the case of MCCG it was no more than 0.25; in that of RHMN, no more than 0.25; in that of TGKR, no more than 0.25. In the case of MCPK it was no more than 0.25. Under PEDM stands no more than 0.25; under LKSW, no more than 0.25; under LYEP, no more than 0.25. Turning to YIYC, the enrichment ratio was no more than 0.25. Regarding AEGI, the enrichment ratio is 0.618. In the case of DPEI it was no more than 0.25; in that of YAVC, no more than 0.25. In the case of ISAQ it was no more than 0.25; in that of PLKV, no more than 0.25. In the case of QAFF it was no more than 0.25. Consider YPCN, for which the enrichment ratio is no more than 0.25. Under IHAF stands no more than 0.25; under AEHS, no more than 0.25. Under IWFA stands no more than 0.25; under KNMS, no more than 0.25; under LFGW, no more than 0.25. For the variant IWMT, the enrichment ratio is no more than 0.25. Under YWQL stands no more than 0.25; under MTRC, no more than 0.25; under SLLH, 0.966. Under QFPI stands no more than 0.25; under SEQD, no more than 0.25; under KAFP, no more than 0.25.

Take YREI: the enrichment ratio is no more than 0.25.

In the case of YSAS, the enrichment ratio is no more than 0.25.

DSCI: the enrichment ratio was no more than 0.25. For RSLV, the enrichment ratio was no more than 0.25.

For the variant KLVR, the enrichment ratio is no more than 0.25. Under DLQM stands no more than 0.25; under YIQR, no more than 0.25. In the case of PCNR it was no more than 0.25. In the case of RSCH it was no more than 0.25; in that of IHRL, no more than 0.25.

Regarding TDIR, the enrichment ratio is no more than 0.25. In the case of MPDK it was no more than 0.25; in that of HKLY, no more than 0.25.

On to KLPD, for which the enrichment ratio is no more than 0.25. Turning to GTSI, the enrichment ratio came to 2.4. In the case of MVPF, the enrichment ratio is no more than 0.25. As to GLEE, the enrichment ratio is no more than 0.25. Under FDSA stands no more than 0.25. On to DGAV, for which the enrichment ratio was no more than 0.25.
